Results as given in ChEMBL document CHEMBL1157539, “Thousands of chemical starting points for antimalarial lead identification” (Nature, 2010).
In all, about 13,000 compounds were measured (“IFI”: median about 4, highest 2% from about 17 on). The list shows a part of the results.

Assay: GSK_TCMDC: Inhibition Frequency Index (IFI). The number of non-kinase HTS assays where a compound showed > 50 % inhibition, expressed as a percentage of the number of such assays in which the compound was tested (-0 is zero)
Format: functional

| SMILES | IFI [%] |
| --- | --- |
| O=C(COc1ccccc1Cc1ccccc1)Nc1cc(Cl)ccc1-n1cncn1 | 0 |
| O=C(Nc1cc(Cl)cc(Cl)c1)c1cc(Cl)c(=O)n(Cc2cccc(Cl)c2)c1 | 7.09 |
| COc1ccc(-c2cnc3ccc(N4CCCC4)nn23)cc1OC | 5 |
| Cc1cc(CN2CC[C@H](NC(=O)c3ccc(Cl)c(Cl)c3)C2)ccc1OCCCN(C)C | 6.67 |
| CN(CCc1ccccc1)c1ncc(-c2ccccc2CNCc2ccccc2O)cn1 | 4.88 |
| O=C(NCC1CCC(C(=O)NC2CCCc3ccccc32)CC1)c1ccc(O)c(-c2ccc(Cl)c(Cl)c2)c1 (centres undefined) | 0.76 |
| c1cc(CNCCc2ccncc2)cc(-c2csc(-c3nc4ccccc4[nH]3)c2)c1 | 2.97 |
| COc1ccc(-c2ccc(NC(=O)c3ccc(C#N)cc3)cc2)cc1CN1CCCN(C)CC1 | 3.92 |
| N=C(N)Nc1nc(-c2cccc(NC(=O)CCCCCCCON3C(N)=NC(N)=NC34CCCCC4)c2)cs1 | 3.73 |
| O=C(/C=C/c1ccc(Cl)c(Cl)c1)NCCCCCCN1CCCN(C(=O)Nc2cc(F)cc(F)c2)CC1 | 7.44 |
| Cc1ccc(-n2cc(CNCCCn3ccnc3)c(-c3cccc(C)c3)n2)cc1 | 9.76 |
| CS(=O)(=O)N(CC(O)Cn1c2ccc(Cl)cc2c2cc(Cl)ccc21)c1ccccc1 (centres undefined) | -0 |
| O=C(Nc1ccc(CCN2CCC(c3nc(COCC(F)(F)F)c(-c4ccccc4)o3)CC2)cc1)c1ccc(F)cc1 | 0.72 |
| CC(CCON1C(N)=NC(N)=NC1(C)C)c1ccc(Cl)c(Cl)c1 (centres undefined) | 7.09 |
| CC(C)CNc1nc(N)nc2ccc3c(ccn3CC(C)C)c12 | 8.47 |
| COc1cc(CN2CCC(CO)(Cc3cccc(C(F)(F)F)c3)CC2)c(Cl)cc1O | 2.44 |
| O=C(/C=C/c1ccc(C(F)(F)F)cc1)NCCCCCN1CCCN(C(=O)Nc2cccc(Cl)c2)CC1 | 8.82 |
| COc1ccc(CCN(C)CCCCc2ccc(NC(=O)c3cccc4c(=O)c5cc(F)ccc5sc34)cc2)cc1OC | 10 |
| COC(=O)c1cccc(CNCc2ccc(-c3ccc(-c4nc5cc(F)ccc5[nH]4)s3)cc2)c1 | 6.8 |
| O=C(/C=C/c1ccc(Cl)cc1)NCCCCCN1CCN(C(=O)C=Cc2ccc(Cl)c(Cl)c2)CC1 | 6.84 |
| CC(=O)c1ccc(-c2ccccc2)s1 | 0.75 |
| Cc1cc(C(=O)Nc2nc(-c3ccccn3)nc3ccsc23)no1 | 8.4 |
| CC(C)CNCc1cccc(-c2ccccc2CN(C(=O)NCCc2ccccc2)C2CCN(Cc3ccccc3)CC2)c1 | 14.1 |

| SMILES | IFI [%] |
| --- | --- |
| CCc1c(CCNCC/C=C/CCNCCc2ccc(OC)c(OC)c2CC)ccc(OC)c1OC | 6.15 |
| CN1CCCN(Cc2cccc(-c3cccc(NC(=O)c4ccc(Cl)cc4)c3)c2)CC1 | 7.69 |
| Cc1cccc2nc(-c3cccc(-c4cccc(NC(=O)NCc5ccccc5)c4)c3)[nH]c12 | 3.03 |
| COc1ccc(Cl)cc1-c1nc(C(=O)NCCN2CCCCC2)c(C(C)C)s1 | 9.33 |
| O=C(NNC(=O)c1ccc(CN2CCC(c3nc4ccccc4[nH]3)CC2)cc1)Nc1ccc(Oc2ccccc2)cc1 | 7.14 |
| COc1ccc(CNCc2ccc(-c3ccc(CNCCc4ccccc4)cn3)cc2)cn1 | 1.47 |
| CCCCCCN1CCC(NCc2ccc(C(F)(F)F)cc2)CC1 | 4.17 |
| O=C1Nc2cccc3c2C1(CCCCN1CCC(c2c(-c4ccccc4)[nH]c4ccccc24)CC1)CCC3 (centres undefined) | 7.3 |
| CCc1c(CCNCCCCCCNCCc2ccc([N+](=O)[O-])cc2)ccc(O)c1O | 9.66 |
| CC1CC(NCCCNc2cc(=O)c3ccccc3[nH]2)c2cc(Cl)c(Cl)c(Cl)c21 (centres undefined) | 6.43 |
| CC1(C)NC(N)=NC(=N)N1OCCCCOc1ccc(Cl)cc1C1CCCCC1 | 15.3 |
| CCCCc1ccc(C(=O)Nc2ccc3nc(N4CCN(C)CC4)cc(C)c3c2)cc1 | 7.38 |
| CC(C)(C)NCC(O)COc1ccc(Cl)cc1C1=NNC(=O)CC1 (centres undefined) | -0 |
| Cc1ccc(C(=O)NC2C(=O)NC2c2ccccc2)c(C)c1 (centres undefined) | -0 |
| CCCN(CCC)S(=O)(=O)c1ccc(C(=O)N2CCC(C(=O)OCC)CC2)cc1 | -0 |
| COc1ccc(C(=O)NCCCCN2CCC(c3ccc4c(c3OC)CCCC4)CC2)cc1-c1ccc(C(F)(F)F)cc1 | 12.2 |
| CC(C)(C)c1ccc2[nH]c(-c3ccc(C(=O)NC4CCN(Cc5ccccc5)CC4)s3)nc2c1 | 5.04 |
| CC1(C)N=C(N)N=C(N)N1OCc1ccc2c(c1)OCO2 | 1.46 |
| CC(Cc1ccc(OCCN2CCN(c3cccc(Cl)c3)CC2)cc1)NCC(O)c1cccc(Cl)c1 (centres undefined) | 16.4 |
| COc1ccc2ncc(F)c(NC(=O)C3CCC(NCc4cc5cc(F)cc(F)c5[nH]4)CC3)c2n1 (centres undefined) | 1.9 |
| CCCN(CCC)C(=O)c1cc(C(=O)N[C@@H](Cc2ccccc2)[C@H](O)CNC2CC2)cc(N2CCCCS2(=O)=O)c1 | 2.94 |
| CNC(=O)C1Cc2c([nH]c3cc(Br)ccc23)C2(CCN(CCc3ccccc3)CC2)N1 (centres undefined) | 7.86 |
| CCCCOC(=O)NCCCC[C@H](NC(=O)OC(C)(C)C)C(=O)N[C@H](C(=O)OC(c1ccccc1)c1ccccc1)[C@H]1O[C@@H](n2ccc(=O)[nH]c2=O)[C@@H]2OC(C)(C)O[C@@H]21 | 3.01 |

| SMILES | IFI [%] |
| --- | --- |
| COc1cc(Cc2cnc3nc(N)nc(N)c3c2C)cc(OC)c1OC | 1.6 |
| CCN(CC)CCCNc1nccc(N(C)c2ccc(NC(=O)Nc3cc(C(F)(F)F)ccc3F)cc2)n1 | 5 |
| Cc1cc2c(/C=C/C(=O)NC3CCC(CCN4CCc5ccc(C#N)cc5CC4)CC3)cccc2[nH]1 (centres undefined) | 2.29 |
| CCOc1cc(C(=O)NCc2ccc(Cl)c(Cl)c2)ccc1-c1nc2cc(Cl)ccc2[nH]1 | 1.53 |
| CCN1C(c2ccc(Cl)cc2)C(CNCc2ccccc2O)CC1(C)CO (centres undefined) | 6.98 |
| c1ccc(-c2nc(NC3CCCCC3)cc(C3CC3)n2)nc1 | 7.83 |
| CC(=O)Oc1cc(C)ccc1C1CCN(CCCCNC(=O)c2ccc(NC(=O)c3ccc(Cl)cc3)cc2)CC1 | -0 |
| COc1ccc2nc(Nc3nc4cnccc4[nH]3)sc2c1 | 3.82 |
| O=C(C=Cc1ccc(Cl)c(Cl)c1)NCCCCCN1CCC(CCNS(=O)(=O)c2ccc(F)cc2)CC1 | 6.52 |
| C=CCc1c(C(=O)NCC23CC4CC(CC(C4)C2)C3)nc2ccccc2c1O | 0.78 |
| COc1ccc(/C=C/C(=O)Nc2ccc(-c3ccncc3)cc2)cc1CCCN(C)C | 2.99 |
| CCOc1ccc(Cc2c(C)nc3nc(N)nc(N)c3c2C)cc1 | 2.19 |
| Cc1sc2cc(Cl)cc(Cl)c2c1S(=O)(=O)Nc1ccc2nccc(N3CCNCC3)c2c1 | 6.11 |
| Cc1noc(C)c1-c1cccc(CNCc2cccc(-c3ccc(-c4nc5ccccc5[nH]4)s3)c2)c1 | 3.92 |
| Cc1cccc2nc(-c3ccc(-c4ccc(NC(=O)C5CCN(C)CC5)cc4)cc3)[nH]c12 | 4.24 |
| CCCCCCN1CCC(NCc2ccc(CN(C)C)cc2)CC1 | 3.38 |
| COc1ccc2ncc(F)c([C@@H](O)CN3CCC(NCc4ccc5c(c4)NCCS5)CC3)c2n1 | 5.59 |
| Cc1nc(C(=O)N2CCCC[C@H]2CNC(=O)c2ccc(-c3ccc(N4CCCC4=O)cc3C)cc2)c(-c2ccc(F)cc2)s1 | 2.9 |
| CC1CN(c2ccc(C(=O)NCC3CC3)cc2NC(=O)OCc2ccccc2)CC(C)O1 (centres undefined) | 2.38 |
| Cc1cccc2nc(-c3ccc(-c4ccc(CNCC(C)C)cc4)cc3)[nH]c12 | 7 |
| Cc1noc(C)c1-c1ccc2c(Nc3ccccc3C(C)(C)C)c(C(=O)NCc3ccc(C(F)(F)F)cc3)cnc2c1 | 3.45 |
| CC(C(=O)N1CCCC1)N1CCN(C(c2ccccc2)c2ccccc2)CC1 (centres undefined) | 0.76 |
| Cc1cc(N(C)CCN(C)C)nc(Nc2ccc(Cl)cc2)n1 | 1.2 |

| SMILES | IFI [%] |
| --- | --- |
| COc1cc(Cc2cnc(N)nc2N)cc(OCCCCC2NC(=O)NC2=O)c1OC (centres undefined) | 0 |
| Cc1cc(OCCCN2CCCC2)ccc1NC(=O)COc1ccc(Cl)cc1C(=O)c1cc(C#N)cc(C(F)(F)F)c1 | 7.91 |
| COc1ccc(Cl)cc1C(=O)Nc1ccc(-c2nc3ccccc3[nH]2)cc1 | 6.52 |
| CN(C)c1ccc(CN2CCC(CNC(=O)c3cc(-c4cccc(C(F)(F)F)c4)cs3)C2)cc1 (centres undefined) | 8.16 |
| CC(C)n1c(C(C)(C)C)cc2c3c(N)nc(N)nc3ccc21 | 4.24 |
| COc1ccc(Nc2nc(NCc3ccco3)c3ccccc3n2)cc1 | 9.77 |
| O=C(Nc1ccc(Cl)cc1)c1cccc(CN2CCCN(Cc3cccc(O)c3)CC2)c1 | 6.43 |
| O=C(/C=C/c1ccc(Cl)c(Cl)c1)NC1CCN(Cc2cccc(O)c2)CC1 | 0.67 |
| C=CCn1c(SCC(=O)Nc2cc(C)ccc2OC)nc2sc(C)cc2c1=O | 3.42 |
| Cc1cccc(C)c1N1CCN(C2CCC(NC(=O)c3cc4ccccc4[nH]3)CC2)CC1 (centres undefined) | 13.2 |
| CCOc1ccc(C(C)NC(=O)Nc2ccccc2)cc1OCC (centres undefined) | -0 |
| CC(C)(C)c1ccc(NC(=O)c2ccc(CN3CCCN(Cc4ccc(F)cc4)CC3)cc2)cc1 | 15.6 |
| FC(F)(F)Oc1ccc(-c2cnc3ccc(NCc4ccncc4)nn23)cc1 | 1.53 |
| COc1ccc(Cn2c(Nc3cccc(C(F)(F)F)c3)nc3ccc(C(=O)NCCN4CCCC4)cc32)cc1Cl | 3.62 |
| CCCCNC(=O)[C@H](CC1CCCCC1)NC(=O)c1ccc(O)c(-c2cccc(C(F)(F)F)c2)c1 | 2.19 |
| Cc1ccc(N2CCN(CCCCNC(=O)c3ccc(NC(=O)c4ccc(Cl)cc4)cc3)CC2)c(C)c1 | 4.31 |
| Cc1cc(N(C)C2CCN(C)C2)nc(Nc2ccc(Cl)cc2)n1 (centres undefined) | 2.38 |
| CC(Cc1ccc(C(=O)Nc2ccc(CC(C)NCCc3cccc(Cl)c3)cc2)cc1)NCCc1ccc(C(F)(F)F)cc1 (centres undefined) | 13.1 |
| CC(C)(CNC(=O)C1CCN(CCOCc2ccccc2)CC1)c1nc(-c2ccc(Cl)c(O)c2)c(-c2ccncc2)[nH]1 | 2.21 |
| CC(C)CNCc1cccc(-c2cccc(CNC3CCN(Cc4ccccc4)CC3)c2)c1 | 7.14 |
